Screen size: about 39,000 compounds; about 220 (0.56%) showed activity. This is one part of the list.
System: Escherichia coli K-12 BW25113
Assay: relative growth (OD600 normalised to plate interquartile mean) (fraction); higher = less growth inhibition, active = 0.2 or less
Conditions: 50 µM; LB; incubation time: overnight (16-24 h)
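Further: static incubation at 37 °C against the wild-type strain, values averaged over two biological replicates.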

Compound | relative growth
COc1ccc(NC(=O)Nc2ccc3c(c2)CC(=O)N([C@H](C)CO)C[C@H](C)[C@@H](CN(C)S(C)(=O)=O)O3)cc1 | inactive: 0.998
Cc1noc(C)c1NC(=O)Nc1cccc2c1O[C@@H](CN(C)S(=O)(=O)c1ccccc1)[C@@H](C)CN([C@H](C)CO)C2=O | inactive: 1.01
Cc1c(/C=N/c2ccc(C(C)C)cc2)sc2ccccc12 | inactive: 0.95
CO[C@@H]1CN(C)C(=O)c2cc(NC(=O)Nc3ccccc3F)ccc2OC[C@@H](C)N(Cc2ccccc2C(=O)O)C[C@H]1C | inactive: 1.01
C[C@@H]1CN([C@H](C)CO)C(=O)c2c(c3ccccc3n2C)-c2ccccc2CO[C@H]1CN(C)Cc1cccc(C(F)(F)F)c1 | inactive: 1.07
Cc1ccc(S(=O)(=O)Nc2ccc3c(c2)C(=O)N([C@H](C)CO)C[C@@H](C)[C@H](CN(C)C(=O)Nc2c(C)noc2C)OCCCC[C@@H](C)O3)cc1 | inactive: 0.982
C[C@@H]1CN([C@@H](C)CO)C(=O)Cc2cc(NS(=O)(=O)c3cn(C)cn3)ccc2O[C@H]1CN(C)Cc1ccc2c(c1)OCO2 | inactive: 0.957
Cc1noc(C)c1S(=O)(=O)N(C)C[C@@H]1Oc2ccc(NC(=O)Cc3ccccc3)cc2CC(=O)N([C@H](C)CO)C[C@H]1C | inactive: 0.993
COCCNC(=O)Cn1cnc2c1c(=O)n(C)c(=O)n2C | inactive: 1.01
CCN1CCN([C@H]2CC(=O)NC2=O)CC1 | inactive: 1.01
CCCCCCCCCC[C@@H](O)[C@H]1C=C[C@@H]2C(=O)N(c3ccccc3)C(=O)[C@@H]2N1Nc1ccc([N+](=O)[O-])cc1 | inactive: 1.03
O=C(C[C@@H]1C=C[C@H](NC(=O)c2cccnc2)[C@H](CO)O1)NCCN1CCCCC1 | inactive: 1.03
COCC#Cc1ccc2c(c1)O[C@@H](CN(C)S(=O)(=O)c1ccc(OC)cc1)[C@@H](C)CN([C@H](C)CO)S2(=O)=O | inactive: 1.02
CNCc1ccncc1 | inactive: 1.05
Cc1ccc(S(=O)(=O)Nc2cccc3c2O[C@@H](CN(C)C(=O)NC(C)C)[C@@H](C)CN([C@@H](C)CO)C3=O)cc1 | inactive: 1.02
O=C(CN1CCOCC1)N[C@@H]1CC[C@@H](CCn2cc(C3CC3)nn2)O[C@H]1CO | inactive: 0.986
C[C@@H]1CN([C@H](C)CO)C(=O)c2cccc(NS(=O)(=O)c3ccc(Cl)cc3)c2O[C@H]1CN(C)C(=O)Nc1cccc2ccccc12 | inactive: 1.02
CC(C)NC(=O)Nc1ccc2c(c1)C(=O)N([C@H](C)CO)C[C@H](C)[C@H](CN(C)Cc1ccc(-c3ccccc3)cc1)O2 | inactive: 0.977

From the supplement of paper PMC9446081
